Reference: the supplement of paper PMC7125110
This sample is rich in variants without activity.

B1: glmS ribozyme (parent)
chain: AUAAAAGCGCCAGAACUACAGAAAUGUAGUUGACGAGGAGGAGGUUUAUCGAAUUUUCGGCGGAUGCCUCCAAA

Experiments:
Conditions in all cases: with glucosamine-6-phosphate
glucosamine-6-phosphate [1] = variants of: B1; assay: self-cleavage kobs at 40 uM GlcN6P; higher = faster cleavage; RNA array
Method in brief: (§1)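 Glucosamine-6-phosphate in HEPES/KCl/Mg(OAc)2 buffer, at 40 μM to 10 mM, was flowed over barcoded ribozyme variants transcribed in situ by E. coli RNA polymerase on sequenced MiSeq chips. Tracking was through a hybridised Cy3 probe at 37 °C. kobs, kcat and KM came from exponential decay fits and weighted Michaelis–Menten fits of normalised per-tile medians.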

glucosamine-6-phosphate [2] = variants of: B1; assay: self-cleavage kobs at 10000 uM GlcN6P; higher = faster cleavage; RNA array
Method in brief: as §1

glucosamine-6-phosphate [3] = variants of: B1; assay: self-cleavage kobs at 640 uM GlcN6P; higher = faster cleavage; RNA array
Method in brief: as §1

glucosamine-6-phosphate [4] = variants of: B1; assay: self-cleavage kobs at 160 uM GlcN6P; higher = faster cleavage; RNA array
Method in brief: as §1

glucosamine-6-phosphate [5] = variants of: B1; assay: self-cleavage kobs at 2500 uM GlcN6P; higher = faster cleavage; RNA array
Method in brief: as §1

## G9A G32U A48U
glucosamine-6-phosphate [1]
  self-cleavage kobs at 40 uM GlcN6P: < 1e-05 s⁻¹
glucosamine-6-phosphate [2]
  self-cleavage kobs at 10000 uM GlcN6P: < 1e-05 s⁻¹

## G9A G35C
glucosamine-6-phosphate [1]
  self-cleavage kobs at 40 uM GlcN6P: < 1e-05 s⁻¹
glucosamine-6-phosphate [3]
  self-cleavage kobs at 640 uM GlcN6P: < 1e-05 s⁻¹
glucosamine-6-phosphate [4]
  self-cleavage kobs at 160 uM GlcN6P: < 1e-05 s⁻¹

## G9A G37U G41C U54C
glucosamine-6-phosphate [1]
  self-cleavage kobs at 40 uM GlcN6P: < 1e-05 s⁻¹

## G9A G37U U46C U56A G60C
glucosamine-6-phosphate [1]
  self-cleavage kobs at 40 uM GlcN6P: < 1e-05 s⁻¹
glucosamine-6-phosphate [2]
  self-cleavage kobs at 10000 uM GlcN6P: < 1e-05 s⁻¹

## G9A G38A
glucosamine-6-phosphate [1]
  self-cleavage kobs at 40 uM GlcN6P: < 1e-05 s⁻¹
glucosamine-6-phosphate [2]
  self-cleavage kobs at 10000 uM GlcN6P: < 1e-05 s⁻¹

## G9A G38C A42U C68G
glucosamine-6-phosphate [1]
  self-cleavage kobs at 40 uM GlcN6P: < 1e-05 s⁻¹
glucosamine-6-phosphate [3]
  self-cleavage kobs at 640 uM GlcN6P: < 1e-05 s⁻¹

## G9A G40A
glucosamine-6-phosphate [1]
  self-cleavage kobs at 40 uM GlcN6P: < 1e-05 s⁻¹
glucosamine-6-phosphate [3]
  self-cleavage kobs at 640 uM GlcN6P: < 1e-05 s⁻¹
glucosamine-6-phosphate [4]
  self-cleavage kobs at 160 uM GlcN6P: < 1e-05 s⁻¹
glucosamine-6-phosphate [5]
  self-cleavage kobs at 2500 uM GlcN6P: < 1e-05 s⁻¹

## G9A G40A A48G
glucosamine-6-phosphate [1]
  self-cleavage kobs at 40 uM GlcN6P: < 1e-05 s⁻¹

## G9A G40U C50U A53U
glucosamine-6-phosphate [1]
  self-cleavage kobs at 40 uM GlcN6P: < 1e-05 s⁻¹

## G9A G41U
glucosamine-6-phosphate [1]
  self-cleavage kobs at 40 uM GlcN6P: < 1e-05 s⁻¹
glucosamine-6-phosphate [3]
  self-cleavage kobs at 640 uM GlcN6P: < 1e-05 s⁻¹
glucosamine-6-phosphate [4]
  self-cleavage kobs at 160 uM GlcN6P: < 1e-05 s⁻¹
glucosamine-6-phosphate [5]
  self-cleavage kobs at 2500 uM GlcN6P: < 1e-05 s⁻¹

## G9A G43U
glucosamine-6-phosphate [1]
  self-cleavage kobs at 40 uM GlcN6P: < 1e-05 s⁻¹
glucosamine-6-phosphate [3]
  self-cleavage kobs at 640 uM GlcN6P: < 1e-05 s⁻¹
glucosamine-6-phosphate [4]
  self-cleavage kobs at 160 uM GlcN6P: < 1e-05 s⁻¹
glucosamine-6-phosphate [5]
  self-cleavage kobs at 2500 uM GlcN6P: < 1e-05 s⁻¹

## G9A G44U
glucosamine-6-phosphate [1]
  self-cleavage kobs at 40 uM GlcN6P: < 1e-05 s⁻¹
glucosamine-6-phosphate [3]
  self-cleavage kobs at 640 uM GlcN6P: < 1e-05 s⁻¹
glucosamine-6-phosphate [4]
  self-cleavage kobs at 160 uM GlcN6P: < 1e-05 s⁻¹
glucosamine-6-phosphate [2]
  self-cleavage kobs at 10000 uM GlcN6P: < 1e-05 s⁻¹

## G9A G59C
glucosamine-6-phosphate [1]
  self-cleavage kobs at 40 uM GlcN6P: < 1e-05 s⁻¹
glucosamine-6-phosphate [4]
  self-cleavage kobs at 160 uM GlcN6P: < 1e-05 s⁻¹
glucosamine-6-phosphate [5]
  self-cleavage kobs at 2500 uM GlcN6P: < 1e-05 s⁻¹
glucosamine-6-phosphate [2]
  self-cleavage kobs at 10000 uM GlcN6P: < 1e-05 s⁻¹

## G9A G62U
glucosamine-6-phosphate [1]
  self-cleavage kobs at 40 uM GlcN6P: < 1e-05 s⁻¹
glucosamine-6-phosphate [4]
  self-cleavage kobs at 160 uM GlcN6P: < 1e-05 s⁻¹
glucosamine-6-phosphate [5]
  self-cleavage kobs at 2500 uM GlcN6P: < 1e-05 s⁻¹

## G9A U30C
glucosamine-6-phosphate [1]
  self-cleavage kobs at 40 uM GlcN6P: < 1e-05 s⁻¹
glucosamine-6-phosphate [3]
  self-cleavage kobs at 640 uM GlcN6P: < 1e-05 s⁻¹
glucosamine-6-phosphate [4]
  self-cleavage kobs at 160 uM GlcN6P: < 1e-05 s⁻¹
glucosamine-6-phosphate [5]
  self-cleavage kobs at 2500 uM GlcN6P: < 1e-05 s⁻¹

## G9A U45C
glucosamine-6-phosphate [1]
  self-cleavage kobs at 40 uM GlcN6P: < 1e-05 s⁻¹
glucosamine-6-phosphate [4]
  self-cleavage kobs at 160 uM GlcN6P: < 1e-05 s⁻¹
glucosamine-6-phosphate [2]
  self-cleavage kobs at 10000 uM GlcN6P: < 1e-05 s⁻¹

## G9A U45G
glucosamine-6-phosphate [1]
  self-cleavage kobs at 40 uM GlcN6P: < 1e-05 s⁻¹
glucosamine-6-phosphate [3]
  self-cleavage kobs at 640 uM GlcN6P: < 1e-05 s⁻¹
glucosamine-6-phosphate [2]
  self-cleavage kobs at 10000 uM GlcN6P: < 1e-05 s⁻¹

## G9A U56C
glucosamine-6-phosphate [1]
  self-cleavage kobs at 40 uM GlcN6P: < 1e-05 s⁻¹
glucosamine-6-phosphate [3]
  self-cleavage kobs at 640 uM GlcN6P: < 1e-05 s⁻¹
glucosamine-6-phosphate [4]
  self-cleavage kobs at 160 uM GlcN6P: < 1e-05 s⁻¹
glucosamine-6-phosphate [5]
  self-cleavage kobs at 2500 uM GlcN6P: < 1e-05 s⁻¹

## G9A U65A
glucosamine-6-phosphate [1]
  self-cleavage kobs at 40 uM GlcN6P: < 1e-05 s⁻¹
glucosamine-6-phosphate [5]
  self-cleavage kobs at 2500 uM GlcN6P: < 1e-05 s⁻¹

## G9C A12U
glucosamine-6-phosphate [1]
  self-cleavage kobs at 40 uM GlcN6P: < 1e-05 s⁻¹
glucosamine-6-phosphate [3]
  self-cleavage kobs at 640 uM GlcN6P: < 1e-05 s⁻¹

## G9C A14U A52C
glucosamine-6-phosphate [1]
  self-cleavage kobs at 40 uM GlcN6P: < 1e-05 s⁻¹

## G9C A15G A18C G35U G38A G51A U65G
glucosamine-6-phosphate [1]
  self-cleavage kobs at 40 uM GlcN6P: < 1e-05 s⁻¹
glucosamine-6-phosphate [3]
  self-cleavage kobs at 640 uM GlcN6P: < 1e-05 s⁻¹

## G9C A15U G43A U46A C67G
glucosamine-6-phosphate [1]
  self-cleavage kobs at 40 uM GlcN6P: < 1e-05 s⁻¹
glucosamine-6-phosphate [2]
  self-cleavage kobs at 10000 uM GlcN6P: < 1e-05 s⁻¹

## G9C A48G U49C C70G
glucosamine-6-phosphate [1]
  self-cleavage kobs at 40 uM GlcN6P: < 1e-05 s⁻¹
glucosamine-6-phosphate [2]
  self-cleavage kobs at 10000 uM GlcN6P: < 1e-05 s⁻¹

## G9C A52G
glucosamine-6-phosphate [1]
  self-cleavage kobs at 40 uM GlcN6P: < 1e-05 s⁻¹
